Assay results: the supplement of paper PMC10126150
Values marked as one replicate rest on one cluster of the flow cell; about a third of the high ones do not repeat.
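Further: ATP exposure 15 min at 22 °C before imaging.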

Each sequence was assayed on ATP (assay: switch fluorescence ratio, 500 uM ATP over buffer (Cy3 cluster intensity, sum of 5 cycles each) (fold (ratio)); higher = stronger signal-on switching upon ATP binding; sequences stand for … in TCGTCGGCAGCGTCAGATGTGTATAAGAGACAGTTTTTTTTTTTTTTTTTTTTTTTTT…TC). Settings: aptamer strand: ATP DNA aptamer (quencher-CACCTGGGGGAGTATTGCGGAGGAAGG + anchor), 100 nM annealed; ATP concentration: 500 uM; one replicate.
Outline: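 Switching-strand clusters labelled with Cy3 on a modified Illumina MiSeq flow-cell were annealed to 100 nM quencher-labelled ATP aptamer, imaged in selection buffer, and re-imaged after 15 min with 500 uM ATP at 22 °C. This was done over five cycles with NaOH stripping and re-annealing in between. The fluorescence ratio is summed target-cycle over summed buffer-cycle Cy3 intensity per cluster, averaged per switch-domain sequence, excluding clusters outside 100-1000 RFU.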
AAAAAAAAG gave a switch fluorescence ratio of 0.99.
Sequence AAAAAACTTG has a switch fluorescence ratio of 0.985.
For AAAAAATATC, the switch fluorescence ratio was 0.977.
AAAAAATGAC was tested, and the switch fluorescence ratio was 1.02.
AAAAAATGTA was tested, and the switch fluorescence ratio was 0.967.
AAAAACACTC gave a switch fluorescence ratio of 1.12.
For AAAAACATCG, the switch fluorescence ratio was 1.03.
AAAAAGAGTT gave a switch fluorescence ratio of 1.03.
AAAAAGCAAT showed a switch fluorescence ratio of 1.28.
AAAAAGCACA gave a switch fluorescence ratio of 1.18.
Sequence AAAAAGGATG has a switch fluorescence ratio of 1.01.
AAAAAGTAAA gave a switch fluorescence ratio of 1.07.
In the case of AAAAATCTCC, the switch fluorescence ratio is reported as 1.06.
For AAAAATGACC, the switch fluorescence ratio was 1.07.
AAAAATGCTC gave a switch fluorescence ratio of 0.897.
AAAACAAGCG showed a switch fluorescence ratio of 1.05.
For AAAACACATT, the switch fluorescence ratio was 1.06.
For AAAACCGCCG, the switch fluorescence ratio was 1.07.
For AAAACCTAAA, the switch fluorescence ratio was 0.993.
For AAAACCTAGG, the switch fluorescence ratio was 1.06.
For AAAACGATAG, the switch fluorescence ratio was 0.961.
Sequence AAAACGCACG has a switch fluorescence ratio of 1.23.
Sequence AAAACGCAGA has a switch fluorescence ratio of 1.13.
AAAACGGACT was tested, and the switch fluorescence ratio was 1.06.
With AAAACGGTAG the switch fluorescence ratio was 0.991.
With AAAACTCTCC the switch fluorescence ratio was 1.22.
For AAAAGAAGGC, the switch fluorescence ratio was 0.981.
AAAAGAAGTA showed a switch fluorescence ratio of 1.02.
AAAAGAGATC was tested, and the switch fluorescence ratio was 0.961.
AAAAGATCTC was tested, and the switch fluorescence ratio was 1.01.
Sequence AAAAGATGGA has a switch fluorescence ratio of 1.09.
Work on AAAAGCACTG yielded a switch fluorescence ratio of 1.12.
Sequence AAAAGGATTC has a switch fluorescence ratio of 1.05.
AAAAGGGAA showed a switch fluorescence ratio of 1.02.
AAAAGGGATA gave a switch fluorescence ratio of 0.946.
For AAAAGGGTGT, the switch fluorescence ratio was 1.02.
AAAAGGGTTT gave a switch fluorescence ratio of 0.986.
With AAAAGGTAAT the switch fluorescence ratio was 0.963.
Sequence AAAAGTAGGT has a switch fluorescence ratio of 1.01.
With AAAAGTGCAC the switch fluorescence ratio was 1.06.
For AAAAGTGCTC, the switch fluorescence ratio was 1.07.
Work on AAAAGTGGTC yielded a switch fluorescence ratio of 1.05.
With AAAATAAAT the switch fluorescence ratio was 0.99.
AAAATACCGC showed a switch fluorescence ratio of 0.993.
AAAATACGGT was tested, and the switch fluorescence ratio was 1.02.
Sequence AAAATATCGT has a switch fluorescence ratio of 1.04.
Sequence AAAATATCTG has a switch fluorescence ratio of 1.02.
Sequence AAAATCACGA has a switch fluorescence ratio of 1.22.
In the case of AAAATCTATC, the switch fluorescence ratio is reported as 1.05.
For AAAATGTTGC, the switch fluorescence ratio was 0.987.
AAAATGTTTA showed a switch fluorescence ratio of 1.07.
AAAATTCCCG gave a switch fluorescence ratio of 1.07.
AAAATTTGAA showed a switch fluorescence ratio of 1.03.
With AAACAATACC the switch fluorescence ratio was 1.6.
Sequence AAACAATTGT has a switch fluorescence ratio of 1.01.
AAACACCGGA gave a switch fluorescence ratio of 1.06.
For AAACACTCGG, the switch fluorescence ratio was 1.
AAACACTGTG was tested, and the switch fluorescence ratio was 1.03.
AAACAGCATT showed a switch fluorescence ratio of 3.28.
With AAACAGTCGT the switch fluorescence ratio was 0.964.
Sequence AAACATCCCA has a switch fluorescence ratio of 1.03.
AAACATTAGC gave a switch fluorescence ratio of 0.999.
AAACCCATGG gave a switch fluorescence ratio of 1.02.
AAACCCTTAG was tested, and the switch fluorescence ratio was 1.03.
Sequence AAACCGAGCT has a switch fluorescence ratio of 1.79.
AAACCGGGAT was tested, and the switch fluorescence ratio was 1.04.
For AAACCGGTAC, the switch fluorescence ratio was 2.35.
AAACCGTAGA was tested, and the switch fluorescence ratio was 1.08.
In the case of AAACCGTCTG, the switch fluorescence ratio is reported as 1.03.
In the case of AAACGAGGCC, the switch fluorescence ratio is reported as 1.03.
In the case of AAACGCATTT, the switch fluorescence ratio is reported as 1.12.
AAACGCGTGG was tested, and the switch fluorescence ratio was 1.
AAACGGGAC showed a switch fluorescence ratio of 1.18.
Work on AAACGGGATG yielded a switch fluorescence ratio of 1.
With AAACGTCGCC the switch fluorescence ratio was 1.09.
AAACGTCTTT was tested, and the switch fluorescence ratio was 0.998.
With AAACGTGAGC the switch fluorescence ratio was 1.01.
Work on AAACGTGCCT yielded a switch fluorescence ratio of 1.05.
AAACGTTGGG gave a switch fluorescence ratio of 1.02.
In the case of AAACTAACG, the switch fluorescence ratio is reported as 1.28.
Work on AAACTACGTA yielded a switch fluorescence ratio of 1.21.
Sequence AAACTCACGC has a switch fluorescence ratio of 1.34.
Work on AAACTCATGC yielded a switch fluorescence ratio of 1.01.
Sequence AAACTCGACC has a switch fluorescence ratio of 1.22.
Sequence AAACTCTTTG has a switch fluorescence ratio of 1.
In the case of AAACTGACTA, the switch fluorescence ratio is reported as 1.06.
With AAACTGCGAT the switch fluorescence ratio was 1.1.
In the case of AAACTGGAA, the switch fluorescence ratio is reported as 1.02.
Sequence AAACTGGGTG has a switch fluorescence ratio of 1.21.
In the case of AAACTGTATG, the switch fluorescence ratio is reported as 0.994.
AAACTTCTAT gave a switch fluorescence ratio of 0.986.
With AAACTTGATC the switch fluorescence ratio was 1.07.
For AAACTTGGCC, the switch fluorescence ratio was 0.981.
For AAACTTTCA, the switch fluorescence ratio was 1.32.
For AAAGAAAGAC, the switch fluorescence ratio was 1.04.
In the case of AAAGAATGGA, the switch fluorescence ratio is reported as 0.982.
Sequence AAAGACGTGC has a switch fluorescence ratio of 0.938.
Work on AAAGACGTTA yielded a switch fluorescence ratio of 1.
For AAAGAGACGT, the switch fluorescence ratio was 0.998.
For AAAGATAAAC, the switch fluorescence ratio was 0.979.
In the case of AAAGATAAAT, the switch fluorescence ratio is reported as 0.992.
With AAAGATAGCG the switch fluorescence ratio was 0.987.
AAAGCAGCGG was tested, and the switch fluorescence ratio was 1.01.
AAAGCCGCAA was tested, and the switch fluorescence ratio was 2.64.
AAAGCCGGC showed a switch fluorescence ratio of 1.07.
Work on AAAGCCTCCT yielded a switch fluorescence ratio of 1.1.
With AAAGCGAACT the switch fluorescence ratio was 1.04.
AAAGCGGTT was tested, and the switch fluorescence ratio was 1.01.
In the case of AAAGCGTAC, the switch fluorescence ratio is reported as 2.27.
With AAAGCGTCCA the switch fluorescence ratio was 0.975.
Sequence AAAGCTACTC has a switch fluorescence ratio of 1.6.
AAAGCTATGT was tested, and the switch fluorescence ratio was 0.969.
AAAGCTCCTT showed a switch fluorescence ratio of 1.03.
Work on AAAGCTGTCG yielded a switch fluorescence ratio of 1.05.
For AAAGGACATC, the switch fluorescence ratio was 1.03.
AAAGGATAA gave a switch fluorescence ratio of 1.02.
Work on AAAGGATCG yielded a switch fluorescence ratio of 1.01.
AAAGGATCTG gave a switch fluorescence ratio of 1.03.
AAAGGATGTG was tested, and the switch fluorescence ratio was 1.02.
AAAGGATTCC was tested, and the switch fluorescence ratio was 1.06.
Sequence AAAGGCAACA has a switch fluorescence ratio of 0.996.
AAAGGCTAA showed a switch fluorescence ratio of 0.947.
AAAGGGAAGA gave a switch fluorescence ratio of 1.03.
In the case of AAAGGGATGA, the switch fluorescence ratio is reported as 0.98.
For AAAGGGCTTG, the switch fluorescence ratio was 0.973.
AAAGGGGTT showed a switch fluorescence ratio of 0.979.
With AAAGGGTCCT the switch fluorescence ratio was 1.07.
AAAGGGTGGA showed a switch fluorescence ratio of 0.992.
AAAGGTCCAT gave a switch fluorescence ratio of 0.986.
Work on AAAGGTTAGA yielded a switch fluorescence ratio of 1.01.
Work on AAAGGTTTT yielded a switch fluorescence ratio of 1.02.
For AAAGTAGTTT, the switch fluorescence ratio was 1.03.
AAAGTCACAT showed a switch fluorescence ratio of 1.02.
AAAGTCCGTT showed a switch fluorescence ratio of 0.99.
Sequence AAAGTCTCTA has a switch fluorescence ratio of 0.92.
Work on AAAGTCTTGC yielded a switch fluorescence ratio of 1.07.
AAAGTGCAGC was tested, and the switch fluorescence ratio was 0.953.
In the case of AAAGTGCAGG, the switch fluorescence ratio is reported as 1.01.
In the case of AAAGTGCTGG, the switch fluorescence ratio is reported as 0.993.
Work on AAAGTGGATA yielded a switch fluorescence ratio of 1.01.
AAAGTGTATT gave a switch fluorescence ratio of 0.959.
For AAATAACCAC, the switch fluorescence ratio was 1.08.
Sequence AAATAAGCCT has a switch fluorescence ratio of 1.01.
For AAATAAGGAA, the switch fluorescence ratio was 0.968.
AAATACAGTG gave a switch fluorescence ratio of 1.03.
AAATACCCCC showed a switch fluorescence ratio of 1.88.
AAATAGTA gave a switch fluorescence ratio of 1.
Work on AAATAGTTTT yielded a switch fluorescence ratio of 0.971.
AAATATATCC was tested, and the switch fluorescence ratio was 1.02.
Work on AAATATTCAC yielded a switch fluorescence ratio of 1.02.
Sequence AAATATTTTT has a switch fluorescence ratio of 1.
Work on AAATCAATTG yielded a switch fluorescence ratio of 0.974.
Sequence AAATCACCGT has a switch fluorescence ratio of 1.05.
AAATCATACA was tested, and the switch fluorescence ratio was 1.05.
With AAATCCTGTG the switch fluorescence ratio was 0.983.
Sequence AAATCTTACG has a switch fluorescence ratio of 1.04.
In the case of AAATGAGACT, the switch fluorescence ratio is reported as 0.979.
AAATGAGCGA was tested, and the switch fluorescence ratio was 0.977.
AAATGAGCGT was tested, and the switch fluorescence ratio was 1.04.
In the case of AAATGAGTCG, the switch fluorescence ratio is reported as 0.987.
In the case of AAATGATCTC, the switch fluorescence ratio is reported as 0.958.
AAATGCATG showed a switch fluorescence ratio of 0.991.
AAATGCTGAC showed a switch fluorescence ratio of 1.09.
In the case of AAATGCTGTG, the switch fluorescence ratio is reported as 1.04.
In the case of AAATGGAAGT, the switch fluorescence ratio is reported as 0.983.
Work on AAATGGATAC yielded a switch fluorescence ratio of 1.04.
With AAATGGATGG the switch fluorescence ratio was 0.946.
AAATGGGGTA showed a switch fluorescence ratio of 0.997.
AAATGTATTC showed a switch fluorescence ratio of 1.03.
Work on AAATGTCAGG yielded a switch fluorescence ratio of 1.04.
AAATGTTCTC was tested, and the switch fluorescence ratio was 0.99.
AAATGTTGGC showed a switch fluorescence ratio of 1.03.
AAATTAACTT gave a switch fluorescence ratio of 1.06.
Sequence AAATTACT has a switch fluorescence ratio of 1.05.
Sequence AAATTCAGGA has a switch fluorescence ratio of 1.03.
Work on AAATTCTGAA yielded a switch fluorescence ratio of 1.
AAATTGAACG was tested, and the switch fluorescence ratio was 1.02.
AAATTTAGA showed a switch fluorescence ratio of 1.
AAATTTATTC was tested, and the switch fluorescence ratio was 0.985.
Sequence AAATTTCAAG has a switch fluorescence ratio of 0.977.
AAATTTCCGG gave a switch fluorescence ratio of 1.45.
Sequence AAATTTCTCA has a switch fluorescence ratio of 1.04.
Work on AAATTTTAGT yielded a switch fluorescence ratio of 1.02.
With AAATTTTCTT the switch fluorescence ratio was 1.03.
AACAACCTAT showed a switch fluorescence ratio of 1.01.
In the case of AACAAGATGG, the switch fluorescence ratio is reported as 1.02.
Sequence AACAAGGCGG has a switch fluorescence ratio of 0.988.
Sequence AACAATAAGA has a switch fluorescence ratio of 1.02.
With AACAATCCTT the switch fluorescence ratio was 1.02.
AACACAGTGC was tested, and the switch fluorescence ratio was 1.06.
For AACACCCAGC, the switch fluorescence ratio was 1.16.
In the case of AACACCCCAT, the switch fluorescence ratio is reported as 1.01.
With AACACCTAAG the switch fluorescence ratio was 1.05.
With AACACGGGAT the switch fluorescence ratio was 0.991.
Sequence AACACGTTCC has a switch fluorescence ratio of 2.31.
In the case of AACACTGACA, the switch fluorescence ratio is reported as 1.32.
For AACACTTGGG, the switch fluorescence ratio was 1.01.
For AACAGAATCA, the switch fluorescence ratio was 0.984.
AACAGGACGT gave a switch fluorescence ratio of 1.03.
AACAGGCGT was tested, and the switch fluorescence ratio was 1.01.
In the case of AACAGGGCCG, the switch fluorescence ratio is reported as 1.08.
